Three compounds from PubChem BioAssay (NCI) can be followed below.

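How tested: cells in 96-well plates exposed to compound for 48 hours at five concentrations. Here, GI50 denotes the concentration required for 50% inhibition of growth. TGI: total growth inhibition.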 A value given as a limit tells only on which side of the number the result lay.

The assay deals with NCI-H322M lung. Briefly: inhibition of tumour cell growth, NCI panel, 48 h.
As for `Cc1ccccc1[C@H]1C(C(=O)c2ccc(Cl)cc2)C2(N[C@@H]1c1ccccc1)C(=O)Nc1ccc(Br)cc12` (stereo partly specified), the GI50 was 4.59 µM and the TGI was determined as 9.66 µM.
For the compound `Cc1ccc(NC(=O)N/N=C/c2c[nH]c3ccccc23)c(C)c1`, the GI50 is 0.771 µM and the TGI is over 100 µM.
The like results for `COc1cc(/C=C/C(=O)c2nnn(-c3ccc(Cl)cc3)c2C)cc(OC)c1OC` were, in that order, over 100 µM and over 100 µM.
